# Experimental data as given in PubChem BioAssay (Tox21).
# Several values for one entry are separate records, joined by “and”; a condition that tells them apart may be missing. Identical values can stand only once. The shares of active, inactive and inconclusive entries below differ from those in the screen. Potencies beside an inconclusive call are fits to weak or partial responses and may not hold up. Activity calls are given as the source filed them. Calls follow the shape of the dose curve; as a rule, active = well fitted curve in the direction sought with a large enough effect in the repeat runs; inconclusive = weak or mixed curves; inactive = no such curve, though single readings can be large; an effect the other way counts as inactive or inconclusive.
# Tests used:
# [1] = Caspase-3/7 induction in CHO-K1 cells by small molecules, qHTS cell viability counter screen (AID 1346979); also: nearly all actives have a fitted effect of over 35% in size
# Summary of the method: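 Seeding: 1,500 CHO-K1 cells/well. Rest: 5hr, 37C. Treatment: compounds in DMSO, 16hr. Read: CellTiter-Fluor, 1hr, fluorescence.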
# [2] = molecular target: Cytochrome P450 2C9 (Homo sapiens) (UniProt P11712); assay: Cytochrome P450 Family 2 Subfamily C Member 9 (CYP2C9) small molecule antagonists: luciferase reporter qHTS assay (AID 1671198); also: nearly all actives have a fitted effect of over 50% in size
# Summary of the method: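 CYP2C9 activity was measured with a P450-Glo proluciferin substrate. Enzyme–substrate mix was held with compound for 10 min at room temperature, then NADPH regeneration solution was added for 1 h at 37C. Luciferin product was read as luminescence.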
# [3] = molecular target: Cytochrome P450 2C19 (Homo sapiens) (UniProt P33261); assay: Cytochrome P450 Family 2 Subfamily C Member 19 (CYP2C19) small molecule antagonists: luciferase reporter qHTS assay (AID 1671197); also: nearly all actives have a fitted effect of over 65% in size
# Summary of the method: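 P450-Glo CYP2C19 screening system; proluciferin substrate; DMSO compound stocks; 10 min RT preincubation; NADPH regeneration, 1 h at 37C; luciferin detection reagent, 20 min RT; luminescence as RLU.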
# [4] = molecular target: Voltage-gated inwardly rectifying potassium channel KCNH2 (Homo sapiens) (UniProt Q12809); assay: Human Ether-a-go-go-Related Gene (hERG) channel small molecule antagonists: fluorescence cell-based qHTS assay (AID 1671200); also: nearly all actives have a fitted effect of over 50% in size
# Summary of the method: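 First, 1000 cells per well are seeded and cultured overnight at 37 C. Next, FluxOR II dye is loaded for 1 h at room temperature, protected from light. After 10 more minutes, stimulus is added and fluorescence is read.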
# [5] = Caspase-3/7 induction in HepG2 cells by small molecules, qHTS cell viability counter screen (AID 1346981); also: nearly all actives have a fitted effect of over 30% in size
# Summary of the method: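 Multiplexed with the caspase-3/7 assay: HepG2 cells, 16 hr compound treatment, CellTiter-Fluor viability detection by fluorescence.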
# [6] = Caspase-3/7 induction in CHO-K1 cells by small molecules, qHTS assay (AID 1346980); also: nearly all actives have a fitted effect of over 15% in size
# Summary of the method: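 Wild-type cells were seeded at 1,500 per well and settled 5 hr at 37 C, 5% CO2, then exposed to DMSO-dissolved compounds for 17 hr. Caspase-Glo 3/7 reagent was added, and luminescence was read after 30min at room temperature.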
# [7] = molecular target: Cytochrome P450 1A2 (Homo sapiens) (UniProt P05177); assay: Cytochrome P450 Family 1 Subfamily A Member 2 (CYP1A2) small molecule antagonists: luciferase reporter qHTS assay (AID 1671199); also: nearly all actives have a fitted effect of over 50% in size
# Summary of the method: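 CYP1A2 turnover of a luminogenic substrate was quantified after 1 h with NADPH regeneration at room temperature. Furafylline served as positive control.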
# [8] = molecular target: Cytochrome P450 3A4 (Homo sapiens) (UniProt P08684); assay: Cytochrome P450 Family 3 Subfamily A Member 4 (CYP3A4) small molecule antagonists: luciferase reporter qHTS assay (AID 1671201); also: nearly all actives have a fitted effect of over 50% in size
# Summary of the method: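 Enzyme and proluciferin substrate are mixed with test chemicals for 10 min, then NADPH regeneration system drives turnover for 1 h at room temperature. A detection reagent halts the reaction; luminescence after 20 min gives relative activity.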
# [9] = molecular target: Cytochrome P450 2D6 (Homo sapiens) (UniProt P10635); assay: Cytochrome P450 Family 2 Subfamily D Member 6 (CYP2D6) small molecule antagonists: luciferase reporter qHTS assay (AID 1671196); also: nearly all actives have a fitted effect of over 50% in size
# Summary of the method: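 Luminescence (RLU), read 20 min after detection reagent, indicated CYP2D6 conversion of proluciferin to luciferin during a 1 h NADPH-dependent reaction at room temperature.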
# [10] = molecular target: Nuclear receptor subfamily 1 group I member 2 (Homo sapiens) (UniProt O75469); assay: CYP3A4 induction through human pregnane X receptor (PXR) by small molecules, qHTS assay (AID 1346984); also: nearly all actives have a fitted effect of over 40% in size
# Summary of the method: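 qHTS, concentration-response format: HepG2 DPX-2 line, PXR/CYP3A4-luc. Exposure 24 h, 37C. Substrate Luciferin-IPA 3uM final, 3 h. Detection One-Glo, 30 min RT.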
# [11] = molecular target: Nuclear receptor subfamily 1 group I member 2 (Homo sapiens) (UniProt O75469); assay: Human pregnane X receptor (PXR) activation by small molecules, qHTS assay (AID 1346985); also: nearly all actives have a fitted effect of over 40% in size
# Summary of the method: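 DPX-2 cells (HepG2 co-transfected with a PXR response element and a CYP3A4-promoter luciferase construct) were seeded at 2,000 per well, rested 5 hr at 37C, then exposed to DMSO-dissolved compounds for 24 hr. Activation was read as luciferase luminescence.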
# [12] = molecular target: Nuclear receptor subfamily 1 group I member 2 (Homo sapiens) (UniProt O75469); assay: Human pregnane X receptor (PXR) small molecule agonists, qHTS assay (AID 1346982); also: nearly all actives have a fitted effect of over 35% in size
# Summary of the method: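 We seeded PXR-Luc HepG2 cells in assay medium containing 5% charcoal-stripped FBS, added compounds 5 hr later, incubated 24 hr, and read luminescence with ONE-Glo reagent.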
# Potency is read from the fitted curve at half-maximal effect; tags tell the direction and shape of the fitted curve.
# UniProt P11712, sequence (P11712 whole entry, looked up): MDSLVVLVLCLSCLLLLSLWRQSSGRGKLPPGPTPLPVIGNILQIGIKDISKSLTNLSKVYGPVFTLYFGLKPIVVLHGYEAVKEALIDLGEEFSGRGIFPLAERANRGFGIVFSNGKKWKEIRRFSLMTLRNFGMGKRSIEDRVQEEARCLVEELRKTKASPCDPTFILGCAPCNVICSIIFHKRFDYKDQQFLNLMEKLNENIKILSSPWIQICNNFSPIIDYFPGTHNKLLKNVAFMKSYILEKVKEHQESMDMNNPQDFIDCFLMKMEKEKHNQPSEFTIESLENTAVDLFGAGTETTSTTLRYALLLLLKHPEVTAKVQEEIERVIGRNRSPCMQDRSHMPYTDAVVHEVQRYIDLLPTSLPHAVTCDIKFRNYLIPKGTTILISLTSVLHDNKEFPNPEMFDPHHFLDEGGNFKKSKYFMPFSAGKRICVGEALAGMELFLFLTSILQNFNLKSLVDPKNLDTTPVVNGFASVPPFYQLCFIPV
# UniProt Q12809, sequence (Q12809 whole entry, looked up): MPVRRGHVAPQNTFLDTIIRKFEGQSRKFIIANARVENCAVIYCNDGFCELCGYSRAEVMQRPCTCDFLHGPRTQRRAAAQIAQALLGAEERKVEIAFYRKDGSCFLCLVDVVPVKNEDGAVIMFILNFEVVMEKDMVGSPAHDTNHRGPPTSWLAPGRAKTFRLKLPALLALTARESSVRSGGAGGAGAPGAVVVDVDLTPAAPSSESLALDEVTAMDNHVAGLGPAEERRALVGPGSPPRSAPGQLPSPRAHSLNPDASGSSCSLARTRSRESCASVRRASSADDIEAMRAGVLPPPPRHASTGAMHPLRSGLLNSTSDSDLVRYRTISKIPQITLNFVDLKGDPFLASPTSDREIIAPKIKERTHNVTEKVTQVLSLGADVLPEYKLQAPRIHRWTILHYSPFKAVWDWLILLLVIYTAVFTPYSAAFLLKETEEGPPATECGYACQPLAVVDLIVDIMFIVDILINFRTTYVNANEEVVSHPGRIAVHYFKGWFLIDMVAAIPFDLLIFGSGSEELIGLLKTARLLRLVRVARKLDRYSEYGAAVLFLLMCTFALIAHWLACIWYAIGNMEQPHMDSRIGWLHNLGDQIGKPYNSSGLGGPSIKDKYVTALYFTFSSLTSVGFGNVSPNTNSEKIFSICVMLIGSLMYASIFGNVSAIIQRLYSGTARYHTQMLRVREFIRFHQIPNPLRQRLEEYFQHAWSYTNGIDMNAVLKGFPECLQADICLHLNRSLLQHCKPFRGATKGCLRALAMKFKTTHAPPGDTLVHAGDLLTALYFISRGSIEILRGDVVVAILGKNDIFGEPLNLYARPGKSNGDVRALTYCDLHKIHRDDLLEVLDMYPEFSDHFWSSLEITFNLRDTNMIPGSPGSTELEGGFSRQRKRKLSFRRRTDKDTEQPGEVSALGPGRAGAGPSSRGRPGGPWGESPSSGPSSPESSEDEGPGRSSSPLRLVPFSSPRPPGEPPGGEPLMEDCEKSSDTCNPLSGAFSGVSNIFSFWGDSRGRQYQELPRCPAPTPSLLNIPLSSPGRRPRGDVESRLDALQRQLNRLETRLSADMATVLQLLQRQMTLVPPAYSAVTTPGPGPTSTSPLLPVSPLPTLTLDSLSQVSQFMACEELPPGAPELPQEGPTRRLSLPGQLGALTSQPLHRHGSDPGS
# UniProt P05177, sequence (P05177 whole entry, looked up): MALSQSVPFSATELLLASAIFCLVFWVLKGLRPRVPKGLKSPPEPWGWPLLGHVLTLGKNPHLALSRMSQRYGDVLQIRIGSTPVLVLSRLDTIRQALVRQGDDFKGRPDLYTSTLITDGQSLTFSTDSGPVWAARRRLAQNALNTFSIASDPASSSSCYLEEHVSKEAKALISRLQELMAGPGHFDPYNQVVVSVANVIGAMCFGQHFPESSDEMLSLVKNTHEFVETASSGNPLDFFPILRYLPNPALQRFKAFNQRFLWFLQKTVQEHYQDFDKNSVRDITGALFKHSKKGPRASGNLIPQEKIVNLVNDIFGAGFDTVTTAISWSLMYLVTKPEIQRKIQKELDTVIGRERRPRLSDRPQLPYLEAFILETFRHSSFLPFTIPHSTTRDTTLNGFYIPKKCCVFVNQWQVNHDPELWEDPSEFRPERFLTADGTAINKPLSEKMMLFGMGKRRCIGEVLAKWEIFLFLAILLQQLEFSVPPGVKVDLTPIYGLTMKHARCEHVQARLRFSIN
# UniProt P33261, sequence (P33261 whole entry, looked up): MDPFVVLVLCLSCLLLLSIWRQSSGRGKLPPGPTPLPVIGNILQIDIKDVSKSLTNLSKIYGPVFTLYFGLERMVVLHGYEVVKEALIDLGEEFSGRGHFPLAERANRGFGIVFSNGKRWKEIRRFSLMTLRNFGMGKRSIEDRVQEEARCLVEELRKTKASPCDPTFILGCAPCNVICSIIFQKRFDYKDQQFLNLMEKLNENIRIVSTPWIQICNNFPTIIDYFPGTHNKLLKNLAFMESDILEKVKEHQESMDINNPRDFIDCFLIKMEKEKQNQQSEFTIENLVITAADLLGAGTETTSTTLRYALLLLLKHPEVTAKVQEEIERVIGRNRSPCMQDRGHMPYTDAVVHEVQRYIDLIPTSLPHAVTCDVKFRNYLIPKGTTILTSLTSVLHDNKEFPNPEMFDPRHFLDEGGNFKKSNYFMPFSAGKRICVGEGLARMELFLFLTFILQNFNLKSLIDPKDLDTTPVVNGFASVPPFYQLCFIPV
# UniProt P10635, sequence (P10635 whole entry, looked up): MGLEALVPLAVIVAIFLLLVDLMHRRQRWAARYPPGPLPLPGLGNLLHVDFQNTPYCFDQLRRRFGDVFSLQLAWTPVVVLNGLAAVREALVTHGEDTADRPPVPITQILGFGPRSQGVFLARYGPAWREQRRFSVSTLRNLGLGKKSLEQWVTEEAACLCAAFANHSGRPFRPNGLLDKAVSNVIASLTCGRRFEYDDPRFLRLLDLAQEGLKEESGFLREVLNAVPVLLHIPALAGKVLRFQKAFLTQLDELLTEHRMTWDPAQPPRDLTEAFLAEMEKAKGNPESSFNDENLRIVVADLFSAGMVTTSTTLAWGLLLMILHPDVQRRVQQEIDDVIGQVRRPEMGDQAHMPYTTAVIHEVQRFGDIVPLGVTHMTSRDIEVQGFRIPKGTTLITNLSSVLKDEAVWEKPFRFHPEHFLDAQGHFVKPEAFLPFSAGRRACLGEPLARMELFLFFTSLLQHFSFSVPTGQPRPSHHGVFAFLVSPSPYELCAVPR
# UniProt P08684, sequence (P08684 whole entry, looked up): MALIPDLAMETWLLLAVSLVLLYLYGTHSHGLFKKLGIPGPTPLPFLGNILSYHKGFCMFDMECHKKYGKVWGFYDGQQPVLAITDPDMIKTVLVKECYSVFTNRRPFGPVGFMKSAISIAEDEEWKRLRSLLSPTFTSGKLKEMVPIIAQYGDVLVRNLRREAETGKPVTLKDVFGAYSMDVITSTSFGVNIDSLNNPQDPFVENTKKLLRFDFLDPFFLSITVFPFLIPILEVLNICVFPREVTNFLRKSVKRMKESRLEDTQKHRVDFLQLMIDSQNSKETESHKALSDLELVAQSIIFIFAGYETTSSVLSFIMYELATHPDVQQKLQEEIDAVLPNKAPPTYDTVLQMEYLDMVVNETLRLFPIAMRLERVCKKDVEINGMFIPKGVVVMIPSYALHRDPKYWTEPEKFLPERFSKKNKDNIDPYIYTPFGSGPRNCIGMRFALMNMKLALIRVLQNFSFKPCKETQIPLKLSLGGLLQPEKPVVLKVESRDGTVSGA
smiles,measurement,setting,value
Cc1cc(C)cc(N)c1,Potency,[1],inactive
same,Potency,[2],active: 11.4 µM
O=c1[nH]c(=O)n([C@H]2CCCO2)cc1F,Potency,[1],"inconclusive: 68.6 µM [cytotoxic, single point] and inactive"
same,Potency,[3],"inconclusive: 35.6 µM [inhibitor, single point]"
same,Potency,[4],inactive
O=C(O)Cc1cc(I)c(Oc2cc(I)c(O)c(I)c2)c(I)c1,Potency,[5],"inconclusive: 16.9 µM [cytotoxic, single point]"
CCCCCCCC[N+](CCCCCCCC)(CCCCCCCC)CCCCCCCC,Potency,[6],"inconclusive: 19.3 µM [activator, partial curve]"
CC(C)(C)c1cc(Cc2cc(C(C)(C)C)c(O)c(C(C)(C)C)c2)cc(C(C)(C)C)c1O,Potency,[6],inactive
same,Potency,[5],"inconclusive: 34.4 µM [rising, partial curve, poor fit]"
same,Potency,[3],"inconclusive: 89.4 µM [inhibitor, single point]"
same,Potency,[2],"inconclusive: 71 µM [inhibitor, partial curve]"
NC1[C@H]2CN(c3nc4c(cc3F)c(=O)c(C(=O)O)cn4-c3ccc(F)cc3F)C[C@@H]12 (stereo not given in full),Potency,[5],"inconclusive: 13.3 µM [cytotoxic, partial curve]"
CCN(Cc1ccncc1)C(=O)C(CO)c1ccccc1 (stereo not given),Potency,[5],inactive
COC(=O)[C@H]1[C@H]2C[C@@H]3c4[nH]c5cc(OC)ccc5c4CCN3C[C@H]2C[C@@H](OC(=O)/C=C/c2ccc(O)c(OC)c2)[C@@H]1OC,Potency,[1],active: 26.6 µM
same,Potency,[2],"inconclusive: 7.76 µM [inhibitor, full curve]"
same,Potency,[7],inactive
COc1cc(N)c(Cl)cc1C(=O)NC1CCN(CCCOc2ccc(F)cc2)CC1OC (stereo not given),Potency,[5],"inconclusive: 29.8 µM [cytotoxic, partial curve]"
CC(C)Cc1ccc(C(C)C(=O)O)cc1 (stereo not given),Potency,[5],"inconclusive: 27.3 µM [rising, single point]"
Fc1ccccc1,Potency,[6],inactive
same,Potency,[8],inactive
O=[N+]([O-])c1cc(C2CCCCC2)c(O)c([N+](=O)[O-])c1,Potency,[1],active: 7.67 µM
same,Potency,[2],active: 8.91 µM
same,Potency,[7],"inconclusive: 63.1 µM [inhibitor, partial curve]"
CC[C@]1(O)C[C@@H]2CN(CCc3c([nH]c4ccccc34)[C@@](C(=O)OC)(c3cc4c(cc3OC)N(C)[C@H]3[C@@](O)(C(=O)OC)[C@H](OC(C)=O)[C@]5(CC)C=CCN6CC[C@]43[C@@H]65)C2)C1,Potency,[5],active: 29.8 µM
CN1C(=O)N(c2ccccc2Br)Cc2cnc(Nc3ccc4c(c3)OCC(CO)O4)nc21 (stereo not given),Potency,[6],"inconclusive: 2.73 µM [activator, partial curve]"
same,Potency,[9],"inconclusive: 50.2 µM [inhibitor, partial curve]"
C[C@@H]1CN(CCCn2c3ccccc3c3ccccc32)C[C@H](C)N1,Potency,[6],"inconclusive: 33.5 µM [activator, single point]"
same,Potency,[5],active: 29.8 µM
same,Potency,[10],"inconclusive: 12.6 µM [activator, single point]"
same,Potency,[11],"inconclusive: 14.1 µM [activator, partial curve, poor fit]"
C1CN(SSN2CCOCC2)CCO1,Potency,[6],"inconclusive: 27 µM [activator, single point] and inconclusive: 27.3 µM [activator, single point]"
same,Potency,[12],"inconclusive: 67.9 µM [activator, single point]"
COC(=O)Nc1nc2ccc(S(=O)c3ccccc3)cc2[nH]1 (stereo not given),Potency,[1],"inconclusive: 34.3 µM [cytotoxic, partial curve, poor fit] and active: 8.41 µM"
same,Potency,[4],"inconclusive: 2.18 µM [inhibitor, single point]"
CC(C)c1nc(CN(C)C(=O)N[C@H](C(=O)N[C@@H](Cc2ccccc2)C[C@H](O)[C@H](Cc2ccccc2)NC(=O)OCc2cncs2)C(C)C)cs1,Potency,[5],active: 21.1 µM
COc1cc(C)nc(-n2nc(C)cc2OC)n1,Potency,[5],inactive
CC(C)(C)c1cc(C(C)(C)C)c(O)c(C(C)(C)C)c1,Potency,[1],"inconclusive: 54.5 µM [cytotoxic, partial curve]"
same,Potency,[7],inactive
same,Potency,[4],"inconclusive: 21.9 µM [inhibitor, partial curve]"
same,Potency,[8],"inconclusive: 25.2 µM [inhibitor, full curve]"
N=C1N=C(N)c2ccccc21,Potency,[6],"inconclusive: 68.6 µM [activator, single point]"
same,Potency,[7],"inconclusive: 22.4 µM [inhibitor, partial curve]"
CN(C)CCCN1c2ccccc2Sc2ccc(C(F)(F)F)cc21,Potency,[6],"inconclusive: 33.5 µM [activator, single point]"
same,Potency,[5],inconclusive: 29.8 µM [cytotoxic]
O=c1[nH]cnc2nc[nH]c12,Potency,[1],"inconclusive: 33.5 µM [rising, partial curve, poor fit]"
same,Potency,[7],"inconclusive: 34.7 µM [inhibitor, partial curve]"
Cc1ccco1,Potency,[1],inactive
same,Potency,[7],"inconclusive: 69.5 µM [inhibitor, partial curve, poor fit]"
O=C(Oc1ccccc1)c1cccc(C(=O)Oc2ccccc2)c1,Potency,[6],inactive
same,Potency,[5],"inconclusive: 0.182 µM [rising, full curve, poor fit]"
same,Potency,[12],active: 0.456 µM
same,Potency,[9],active: 28.9 µM
same,Potency,[2],active: 7.48 µM
same,Potency,[7],inconclusive: 28.9 µM [inhibitor]
same,Potency,[4],"inconclusive: 23.7 µM [inhibitor, partial curve]"
